From article PMC12040169 (PLOS Biology, 2025)
The list shows a part of the results.

test system: T1, C. trachomatis L2/434/Bu expressing GFP (CTL2-GFP); design: species or system HeLa; C. trachomatis total inclusion area by high-content imaging, normalised to DMSO; conditions: total inclusion area; 28.5 h, 10 µM; inhibitor
T1 construct: L2/434/Bu GFP intracellular growth in HeLa cells
In short: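 High-content images of fixed, Hoechst-stained infected cultures supply inclusion area and count (growth) plus nuclei number (viability), complementing bulk GFP/resorufin fluorescence. MIC determination is unchanged from the primary assay.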

Compared with `Cc1cnc(CNC(=O)c2ccc(-c3ccoc3)nc2)cn1` [CBK156267], `Cc1cc(C)n(C2CN(CC(=O)NCc3ccccn3)C2)n1` [CBK306238] is lower in “% of control remaining” value: 127.985 for the first, 100.857 for the second.

Compared with `Ic1cnn(Cc2nc(-c3ccc4c(c3)OCO4)no2)c1` [CBK270050], `Nc1nonc1-c1nc2ccccc2n1Cc1cc2c(cc1Br)OCO2` [CBK267961] is higher in “% of control remaining” value: 85.6606 for the first, 92.5712 for the second.

Going from `O=S(=O)(Nc1cccc2[nH]ccc12)c1sc(Cl)cc1Br` [CBK153552] to `O=C(Cc1c(O)c2ccccc2[nH]c1=O)NCc1ccccc1Cl` [CBK160320], the “% of control remaining” value falls from 96.6516 to 88.8379.

Going from `Fc1cccc(Sc2nnnn2-c2ccccc2)c1` [CBK002906] to `O=C(Nc1ccnn1Cc1ccccc1)C1CC(c2cccc(F)c2)=NO1` (centres unmarked) [CBK297772], the “% of control remaining” value rises from 95.3325 to 99.889.

Going from `O=C(Nc1ccc(Cl)c(Cl)c1)c1cnc2n(c1=O)CCS2` [CBK287381] to `O=C(Nc1cccnc1N1CCNCC1)c1ccccn1` [CBK029425T], the “% of control remaining” value rises from 84.7311 to 107.065.

First: CCOC(=O)c1cnn(C)c1-c1ccc(F)cc1OC [CBK149233]
Second: Cc1c(C(=O)O[C@H]2C[C@@H](c3ccc(F)cc3)N(C)C2=O)cnn1C [CBK283616]
The “% of control remaining” value of the first is higher: 104.206 for the first, 98.0843 for the second.

First: Cc1cnccc1CN1CCC[C@@H]2CN(C(=O)CC(C)C)C[C@@H]21 [CBK285289]
Second: CC(CC(=O)N1CCCC(c2cc3cccnc3[nH]2)C1)n1ccnc1 (centres unmarked) [CBK285034]
The “% of control remaining” value of the first is higher: 74.3872 for the first, 66.5554 for the second.

Compared with `Cc1ccn2c(C3CCN(CCc4ccccc4)CC3)nc(-c3ccccc3)c2c1` [CBK035490], `c1ccc2cc(-c3cn4ccnc4c(N4CCN(c5ccncc5)CC4)n3)ccc2c1` [CBK066369] is lower in “% of control remaining” value: 99.6103 for the first, 87.3335 for the second.

First: COCCCNCCSc1ccc(Cl)cc1 [CBK265093]
Second: CSc1ccc(SC/C(N)=N/O)cc1 [CBK025411C]
The “% of control remaining” value of the first is higher: 99.8412 for the first, 62.1737 for the second.

Going from `CN1CCCc2cc(-c3cncn3CC(=O)NC(C)(C)C)ccc21` [CBK281700] to `O=C(NCCn1nc2c(cc1=O)CCCCC2)c1cccs1` [CBK283277], the “% of control remaining” value falls from 100.746 to 93.746.

First: O=C(Nc1ccc2ncsc2c1)C1COc2ccccc2O1 (centres unmarked) [CBK287750]
Second: COc1cc(NC(=O)C2CCCN2)ccc1-n1cccc1 (centres unmarked) [CBK282500]
The “% of control remaining” value of the first is lower: 82.5319 for the first, 100.254 for the second.

Going from `COc1ccc2[nH]c3c(c2c1)CCOC31CCN(C(=O)CC(C)CC(=O)O)CC1` (centres unmarked) [CBK047197] to `COC(=O)CCc1ccc(S(=O)(=O)N2CCCN(Cc3c[nH]c4ccc(OC)cc34)CC2)cc1` [CBK062985], the “% of control remaining” value rises from 86.5624 to 87.92.

Compared with `COC(=O)c1sc(-c2ccsc2)cc1N` [CBK006256], `COCc1nnc(Sc2nc3ccccc3nc2NC(C)C)s1` [CBK115253] is higher in “% of control remaining” value: 95.046 for the first, 110.503 for the second.

Compared with `Cc1ccc([N+](=O)[O-])cc1NC(=O)CSc1nnc(-c2ccco2)o1` [CBK268378], `Cc1ccc(-c2ccc(/C=C(\C#N)c3nc(-c4ccco4)cs3)o2)c([N+](=O)[O-])c1` [CBK266685] is higher in “% of control remaining” value: 104.845 for the first, 120.552 for the second.

Compared with `CC(C)(O)c1cc(CC2(NCC3CCCCC3)COC2)no1` [CBK289656], `CCCCSc1nc(N)cc(N2CCCC(C(=O)N3CCOCC3)C2)n1` (centres unmarked) [CBK307210] is lower in “% of control remaining” value: 121.09 for the first, 105.869 for the second.

Going from `CC(=O)NCCSc1nccnc1N1CCCC1` [CBK105619] to `Cc1ccsc1CN1CCCCC1CO` (centres unmarked) [CBK026348], the “% of control remaining” value rises from 94.3156 to 114.183.

Compared with `CC1CCN(C(=O)c2cccc(Cn3cc(Br)cn3)c2)CC1` [CBK058482], `CC(=O)N1CCC(C(=O)NC(=O)Nc2cccc(C)c2)CC1` [CBK034854] is lower in “% of control remaining” value: 101.242 for the first, 60.2983 for the second.

Going from `Cc1ccc(S(=O)(=O)CC(=O)N2CCCC3(CCN(C(=O)c4cc(F)c(F)cc4F)C3)C2)cc1` (centres unmarked) [CBK131558] to `CCOC(=O)c1ccc(NC(=O)N2CCC3(CC2)NC(=O)Cc2ccccc23)cc1` [CBK047362], the “% of control remaining” value rises from 0.1099 to 83.2965.

First: CC(O)C(=O)NS(=O)(=O)c1ccccc1 (centres unmarked) [CBK038300]
Second: NC(=O)CN(CC(N)=O)S(=O)(=O)c1ccccc1 [CBK262490]
The “% of control remaining” value of the first is higher: 99.2712 for the first, 82.7421 for the second.

Going from `CCN1C(=O)C2(CC(=O)N(CCCN(C)C(=O)c3ccco3)C2=O)c2cc(C)ccc21` (centres unmarked) [CBK075141] to `CCCn1c(SCC(=O)N2CCN(S(=O)(=O)c3ccc(C)cc3C)CC2)n[nH]c1=O` [CBK295590], the “% of control remaining” value rises from 81.6559 to 116.562.

Going from `CC(C)N(C(=O)Cn1c(C(F)F)cc2cccnc21)C(C)C` [CBK285009] to `NS(=O)(=O)c1cccnc1NCc1ccccc1` [CBK288448], the “% of control remaining” value falls from 115.427 to 49.9763.

Compared with `CCOC(=O)N1CCN(Cc2ccc(OCc3nccn3C)cc2)CC1` [CBK305413], `CCCC(=O)c1ccc(S(=O)(=O)N2CCN(Cc3ccc(C(C)=O)cc3)CC2)cc1` [CBK063159] is higher in “% of control remaining” value: 42.8095 for the first, 64.7029 for the second.

Going from `CN(C)C(=O)CN1CCC2(CC1)CN(S(C)(=O)=O)c1ccccc12` [CBK126686] to `COc1ccccc1C1(O)CCN(CC(O)c2ccc3c(c2)OCCO3)CC1` (centres unmarked) [CBK286482], the “% of control remaining” value falls from 91.8096 to 76.1112.

Going from `CC(C)C1CC(CCNCc2ccc(N(C)C)cc2)(c2ccccc2)CCO1` (centres unmarked) [CBK266210] to `O=C(CNC(=S)NC(=O)c1ccc(Br)o1)c1ccccc1` [CBK265310], the “% of control remaining” value rises from 90.1369 to 95.7186.

First: O=C(Cc1cccc2ccccc12)NC(NC(=S)Nc1ccccc1Br)C(Cl)(Cl)Cl (centres unmarked) [CBK261094]
Second: N=c1n(CC(=O)O)c2ccccc2n1Cc1ccccc1Cl [CBK262917B]
The “% of control remaining” value of the first is lower: 70.2223 for the first, 81.53 for the second.

Going from `CCCC(=O)Nc1ccccc1OC1CCNCC1` [CBK045902T] to `Cc1ccccc1OCC1CCCN(C(=O)C2CC(=O)OC2(C)C)C1` (centres unmarked) [CBK282062], the “% of control remaining” value rises from 73.376 to 116.174.

Going from `CC1=CC(C)C(C(=O)O)C(C(=O)Nc2ccccc2)C1` (centres unmarked) [CBK286851] to `O=C(Nc1ccccc1C(=O)N1CCOCC1)C1CCN(C(=O)c2ccco2)CC1` [CBK270272], the “% of control remaining” value falls from 74.9062 to 55.9282.

Going from `c1ccc(C(Nc2cnccn2)C2CC2)cc1` (centres unmarked) [CBK304145] to `O=C(Cn1cccn1)NC(Cc1ccsc1)c1cccnc1` (centres unmarked) [CBK285396], the “% of control remaining” value rises from 67.4677 to 101.58.

Going from `COc1ccc(-c2cn3ccnc3c(Nc3ccc(N4CCOCC4)cc3)n2)cc1` [CBK066265] to `FC(F)(F)c1cccc(-c2cn3ccnc3c(NCCc3ccccn3)n2)c1` [CBK066491], the “% of control remaining” value falls from 104.112 to 66.4851.

First: COC(=O)Cn1c(C(C)(C)C)cn2c3c(=O)n(C)c(=O)n(C)c3nc12 [CBK307555]
Second: CC(C)(C)C(=O)NCc1ccc(C(=O)CSc2n[nH]c(=O)n2C2CC2)s1 [CBK295653]
The “% of control remaining” value of the first is lower: 39.1969 for the first, 101.947 for the second.

First: NC(=O)c1ccc(-n2cc(-c3ccc(Cl)cc3)nn2)cc1 [CBK113046]
Second: CC(=O)NS(=O)(=O)c1ccc(NC(=O)c2cn(-c3ccccc3)nc2-c2cccs2)cc1 [CBK296125]
The “% of control remaining” value of the first is lower: 96.2269 for the first, 96.2614 for the second.

First: O=C(C1CC=CCC1)N1CCCC(c2[nH]ncc2-c2ccncc2)C1 (centres unmarked) [CBK284198]
Second: Cc1nnc([C@H]2CCN(Cc3cccs3)C2)o1 [CBK289393]
The “% of control remaining” value of the first is lower: 54.1688 for the first, 102.068 for the second.

First: CCC(CN1CCCCC1)n1cncc1-c1cn(C)nc1C (centres unmarked) [CBK281460]
Second: Cc1nc(C)n(CC2CCCN(Cc3ccc(C#N)cc3)C2)n1 (centres unmarked) [CBK305082]
The “% of control remaining” value of the first is higher: 110.411 for the first, 63.2886 for the second.

First: O=C(NCC1(CCO)CC1)c1c[nH]nc1-c1cc2ccccc2o1 [CBK306163]
Second: O=C(NCCOc1ccccc1F)C1CC(=O)N(Cc2ccccn2)C1 (centres unmarked) [CBK304632]
The “% of control remaining” value of the first is lower: 48.7394 for the first, 56.5635 for the second.

Compared with `CCCC/C=C/c1nccnc1NCc1ccc2c(c1)OCO2` [CBK037304], `Cc1cc(S(=O)(=O)N(CCC#N)Cc2ccccc2)c(C)cc1Cl` [CBK043461] is lower in “% of control remaining” value: 131.136 for the first, 94.4327 for the second.

Going from `Cc1ccc(Cl)cc1NC(=O)CC(C(=O)O)N(C)C` (centres unmarked) [CBK267105] to `Cc1ccc(N)c(C(=O)CCC(=O)O)c1` [CBK017815C], the “% of control remaining” value falls from 95.2031 to 29.3458.

Compared with `O=C1CC2(CCCCC2)C(C(=O)O)N1` (centres unmarked) [CBK009895], `CC(=O)Nc1ccc(NC(=O)CC2(CC(=O)O)CCCCC2)cc1` [CBK299816] is higher in “% of control remaining” value: 50.8862 for the first, 112.026 for the second.

First: COc1cc2c(cc1OC)CN(/C=N/c1sc3c(c1C#N)CC(C)(C)NC3(C)C)CC2 [CBK262918]
Second: CCCCNC(=S)NC1CC[C@@]2(Cc3ccc(OC)c(OC)c3)CCN(C)[C@H]2C1 (some centres unmarked) [CBK023805]
The “% of control remaining” value of the first is higher: 104.043 for the first, 73.7725 for the second.

First: O=C(c1cccc(S(=O)(=O)N2CCOCC2)c1)N(Cc1ccc(F)cc1)Cc1ccco1 [CBK265885]
Second: CC(C)c1ccc(S(=O)(=O)N2CCN(c3ncnc4c3oc3ccccc34)CC2)cc1 [CBK296936]
The “% of control remaining” value of the first is higher: 101.413 for the first, 98.9935 for the second.

Compared with `Cc1ccc(CN2CCNCC2CCO)o1` (centres unmarked) [CBK269844], `COc1cc(/C=N/NC(=O)CCc2c(C)n[nH]c2C)ccc1O` [CBK262925] is lower in “% of control remaining” value: 120.356 for the first, 93.3379 for the second.

Compared with `N=C(N)SCC1CNC(=N)S1` (centres unmarked) [CBK260991], `COc1ccc(F)c(CN(CC(C)(C)CN)C(=O)Nc2ccc(C(C)(C)C)cc2)c1` [CBK002461C] is lower in “% of control remaining” value: 92.1839 for the first, 55.9413 for the second.

`O=[N+]([O-])c1ccc(/C=N/n2c(S)nnc2COc2ccccc2)cc1` [CBK265240] was tested, and the “% of control remaining” value was 80.5895.
